# Single values of this set are uncertain.
# Test: amyloid nucleation score relative to library mode (yeast Sup35 reporter selection) (log enrichment difference); higher = more amyloid nucleation; sequences are the first 22 residues of the Bri2 peptide extended by up to 12 random residues
# Details: random library (experiment): 1;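 active = nucleation score significantly above 0 at FDR 0.05; inactive = not significantly above 0 or absent from output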
# 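Also: [psi-pin-] Saccharomyces cerevisiae expressing SupN fusions, induced by 100 µM Cu2SO4, selected 7 d at 30 °C without adenine and uracil, scored by deep sequencing of output versus input.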
row,Sequence,amyloid nucleation score
1,EASNCFAIRHFENKFAVETLICVN,inactive
2,EASNCFAIRHFENKFAVETLICLPWPRGCCCWPS,7.97
3,EASNCFAIRHFENKFAVETLICGYKHCALPSCGT,inactive
4,EASNCFAIRHFENKFAVETLICLVYSRY,inactive
5,EASNCFAIRHFENKFAVETLICVVCTTSRPYMVR,inactive
6,EASNCFAIRHFENKFAVETLICGVVRRCTTGGAF,inactive
7,EASNCFAIRHFENKFAVETLICFGQPAGGMPSLR,2.39
8,EASNCFAIRHFENKFAVETLICLVDDSMYMLIV,inactive
9,EASNCFAIRHFENKFAVETLICRVFSVLL,inactive
10,EASNCFAIRHFENKFAVETLICCSWVGCYKLIAW,8.2
11,EASNCFAIRHFENKFAVETLICTLSVPRAWSTWA,inactive
12,EASNCFAIRHFENKFAVETLICIVKGVYLTQAWR,inactive
13,EASNCFAIRHFENKFAVETLICYVCVCLESRWNA,6.84
14,EASNCFAIRHFENKFAVETLICCYNIGRSARLRR,5.56
15,EASNCFAIRHFENKFAVETLICAAYVRRQSLCCF,0.458
16,EASNCFAIRHFENKFAVETLICLRPCFAWLVALR,4.68
17,EASNCFAIRHFENKFAVETLICVDTLIRTHYALL,inactive
18,EASNCFAIRHFENKFAVETLICCDCCYWLCVALA,7.31
19,EASNCFAIRHFENKFAVETLICLSRLSFLVCHSR,inactive

row,Sequence,amyloid nucleation score
1,EASNCFAIRHFENKFAVETLICYVG,6.29
2,EASNCFAIRHFENKFAVETLICWAEGFECSQRAA,-0.309
3,EASNCFAIRHFENKFAVETLICGMCGDYVGLEAR,7.08
4,EASNCFAIRHFENKFAVETLICDVYSRFVRLEGV,inactive
5,EASNCFAIRHFENKFAVETLICRKHRALMFTAVV,inactive
6,EASNCFAIRHFENKFAVETLICHLLS,inactive
7,EASNCFAIRHFENKFAVETLICALDVEPVVNTGV,inactive
8,EASNCFAIRHFENKFAVETLICRLCQRSAGRQRR,inactive
9,EASNCFAIRHFENKFAVETLICECGYRDNPVDRR,4.99
10,EASNCFAIRHFENKFAVETLICGCGRARRIVVLP,inactive
11,EASNCFAIRHFENKFAVETLICEYMGAECEFTLP,-0.309
12,EASNCFAIRHFENKFAVETLICGVTSCVGAQWQW,6.98
13,EASNCFAIRHFENKFAVETLICNVGTGSYFGWEL,7.47
14,EASNCFAIRHFENKFAVETLICDRECRMLMYRVS,inactive
15,EASNCFAIRHFENKFAVETLICDVAVVARANMST,inactive
16,EASNCFAIRHFENKFAVETLICHSAYSVWSRYC,3.43
17,EASNCFAIRHFENKFAVETLICYGCTVLRLHRYL,-0.12
18,EASNCFAIRHFENKFAVETLICARVA,inactive
19,EASNCFAIRHFENKFAVETLICLIWL,4.11

row,Sequence,amyloid nucleation score
1,EASNCFAIRHFENKFAVETLICGTACSKVGNSTL,inactive
2,EASNCFAIRHFENKFAVETLICQESICAHRWARM,inactive
3,EASNCFAIRHFENKFAVETLICAVFAITLGVLR,3.82
4,EASNCFAIRHFENKFAVETLICLDNFNRRYSHAG,3.85
5,EASNCFAIRHFENKFAVETLICLLSSYKWCRREY,inactive
6,EASNCFAIRHFENKFAVETLICGSGSMSFRKMCV,inactive
7,EASNCFAIRHFENKFAVETLICLSELSCERWIQG,inactive
8,EASNCFAIRHFENKFAVETLICRTSETRACVVNK,inactive
9,EASNCFAIRHFENKFAVETLICCSRGVPNVADRQ,6.7
10,EASNCFAIRHFENKFAVETLICLREFQARRRWDA,3.19
11,EASNCFAIRHFENKFAVETLICVKFEATGREDWG,inactive
12,EASNCFAIRHFENKFAVETLICEKYRMRY,3.98
13,EASNCFAIRHFENKFAVETLICTRWRYRGGTYYF,2.99
14,EASNCFAIRHFENKFAVETLICADTCCKCRLSNV,3.26
15,EASNCFAIRHFENKFAVETLICMHALMGRRQMAR,inactive
16,EASNCFAIRHFENKFAVETLICDALTRGDRYLSD,inactive
17,EASNCFAIRHFENKFAVETLICHWCYPDYRIMCR,0.582
18,EASNCFAIRHFENKFAVETLICVVVMVTDSSGGT,3.41

# Same assay, conditions: random library (experiment): 2
row,Sequence,amyloid nucleation score
1,EASNCFAIRHFENKFAVETLICNCQVSCFFSVTQ,8.61
2,EASNCFAIRHFENKFAVETLICGFSYIWLKSSSS,inactive
3,EASNCFAIRHFENKFAVETLICRMFVVGGLVVLW,-0.0583
4,EASNCFAIRHFENKFAVETLICVGFIWSNTNSVV,7.52
5,EASNCFAIRHFENKFAVETLICCFYGLLSCSLSH,-0.432
6,EASNCFAIRHFENKFAVETLICFCLGLMLDMCPL,inactive
7,EASNCFAIRHFENKFAVETLICACSVRSGVVMCV,inactive
8,EASNCFAIRHFENKFAVETLICWYRRLLLCRKWP,0.462
9,EASNCFAIRHFENKFAVETLICVLFVTYCCVMWR,4.02
10,EASNCFAIRHFENKFAVETLICIRPVFSLVDHLY,inactive
11,EASNCFAIRHFENKFAVETLICNFI,7.28
12,EASNCFAIRHFENKFAVETLICLNVCQPQSPACT,inactive
13,EASNCFAIRHFENKFAVETLICYSSYMSVNLPLL,1.43
14,EASNCFAIRHFENKFAVETLICETSFMFASEFFR,2.58
15,EASNCFAIRHFENKFAVETLICPLLFVDWSTDKA,7.13
16,EASNCFAIRHFENKFAVETLICVLSTSADSIFPI,inactive
17,EASNCFAIRHFENKFAVETLICNNLDMLCGAFKY,7.76
18,EASNCFAIRHFENKFAVETLICCCQGYSAFVLQN,inactive
19,EASNCFAIRHFENKFAVETLICVGSSTSWMQLAL,2.85

row,Sequence,amyloid nucleation score
1,EASNCFAIRHFENKFAVETLICYDKYKHLALSNC,0
2,EASNCFAIRHFENKFAVETLICGMCV,6.31
3,EASNCFAIRHFENKFAVETLICCTGYSRIYSAGD,8.47
4,EASNCFAIRHFENKFAVETLICYHFKMFQRIVCH,-0.0296
5,EASNCFAIRHFENKFAVETLICNVYSDRRMWTWG,3.7
6,EASNCFAIRHFENKFAVETLICTSGACFY,6.59
7,EASNCFAIRHFENKFAVETLICRFVGGICKGWLA,inactive
8,EASNCFAIRHFENKFAVETLICYCLCMRSPCGVV,5.02
9,EASNCFAIRHFENKFAVETLICLSVHDTALCIKS,inactive
10,EASNCFAIRHFENKFAVETLICWEKDNSFNHTSW,4.38
11,EASNCFAIRHFENKFAVETLICVSMKSAIAIPWC,1.04
12,EASNCFAIRHFENKFAVETLICHYRYSIMGDGTC,inactive
13,EASNCFAIRHFENKFAVETLICCFSRFLKECGSV,inactive
14,EASNCFAIRHFENKFAVETLICVFEYFSCDGL,1.41
15,EASNCFAIRHFENKFAVETLICNVASMMIISVVE,inactive
16,EASNCFAIRHFENKFAVETLICIKGTGTWVSFL,4.21
17,EASNCFAIRHFENKFAVETLICGMNHWYGTESR,4.81
18,EASNCFAIRHFENKFAVETLICAR,inactive
19,EASNCFAIRHFENKFAVETLICFTFFFYLMRDGK,inactive

# Same assay, conditions: random library (experiment): 3
row,Sequence,amyloid nucleation score
1,EASNCFAIRHFENKFAVETLICVVEAQVPAHMKL,inactive
2,EASNCFAIRHFENKFAVETLICLIQDLGRRRGLR,3.72
3,EASNCFAIRHFENKFAVETLICLPGNGLPPGLRG,3.4
4,EASNCFAIRHFENKFAVETLICRTC,1.41
5,EASNCFAIRHFENKFAVETLICMRFGSRAPGWIW,5.26
6,EASNCFAIRHFENKFAVETLICLRVSTP,1.08
7,EASNCFAIRHFENKFAVETLICYSVCVSYRMLCW,inactive
8,EASNCFAIRHFENKFAVETLICPKISSEAAACLV,inactive
9,EASNCFAIRHFENKFAVETLICIMAGYGTTRRSR,3.83
10,EASNCFAIRHFENKFAVETLICLMWGLSRTGLDA,inactive
11,EASNCFAIRHFENKFAVETLICKMWLPWPLDAMP,inactive
12,EASNCFAIRHFENKFAVETLICHRMNWMSEGSNL,4.62
13,EASNCFAIRHFENKFAVETLICCVGWTKSHSLRY,7.54
14,EASNCFAIRHFENKFAVETLICLYCRVKGAPGVA,inactive
15,EASNCFAIRHFENKFAVETLICDQRVPGPITGPG,inactive
16,EASNCFAIRHFENKFAVETLICTIFVRLGLCVIA,inactive
17,EASNCFAIRHFENKFAVETLICRRLHPFPFSVA,6.39
18,EASNCFAIRHFENKFAVETLICFKWGMYMHLGRS,inactive
19,EASNCFAIRHFENKFAVETLICQAL,inactive
20,EASNCFAIRHFENKFAVETLICDNGRLMTYSVLG,inactive
21,EASNCFAIRHFENKFAVETLICKVRKVVFWARGG,inactive
22,EASNCFAIRHFENKFAVETLICVAPVY,inactive
23,EASNCFAIRHFENKFAVETLICLCL,7.53
24,EASNCFAIRHFENKFAVETLICPAGWETWVSRPS,inactive
25,EASNCFAIRHFENKFAVETLICNWEARGREPIEL,inactive

# Source: the supplement of paper PMC12067230
